The chains are these.
B1: OR4K15 (parent)
chain: GUUAACGGUCAUAGGCCAUGGAAACUAGGAGCACCAUUUCGCUGCCAGUGAAGAAAUGAACAAAGAAAAUCUGGGCCAGGCAGGCAUCAAAAGAAAUAGUCUUGCGCUCAACCAGAAAGUCUGUAAUCAUUUUAAGGGUA

Read counts are not given, so values of variants with three or more changes are uncertain.

The variants in the data set derive from B1. Put plainly: self-cleavage, relative activity (ratio to wild type); higher = more cleavage; in vitro, sequencing; the parent is a self-cleaving ribozyme.
Turning to C6U A66G A78G, the self-cleavage was 0.32.

As to A5G U39C U97C, the self-cleavage turned out to be 1.15.

For U9A A22G U38A U43C U97C A111G, the self-cleavage was 0.

As for U9A A55G A66G, the self-cleavage came out at 0.86.

On to G7U A66G G74U A89U A90G, for which the self-cleavage was found to be 0.11.

Regarding A5G U9C A86G, the self-cleavage worked out at 0.63.

In the case of U9A A18G U43A G123C, the self-cleavage came out at 0.56.

For the variant A5G G7U A47U A125G, the self-cleavage stood at 0.11.

Take A5G U57A U102C A114U: the self-cleavage is 0.19.

On to A5G U87C A92C U139A, for which the self-cleavage is 1.36.

In the case of G7A U43C A52C A90G A92G U127C, the self-cleavage worked out at 0.4.

For G7A A11U U37C C105U, the self-cleavage turned out to be 0.19.

As to U9A A36G A51G, the self-cleavage was found to be 0.82.

Consider A5U A23U A56G A118G, for which the self-cleavage was found to be 0.29.

Consider U9A A33U A63G A66G A68G A134G, for which the self-cleavage came to 0.5.

In the case of G7A U39C A66G A94G C105G U132C, the self-cleavage worked out at 0.

With U9A A51G A59G A63G, the self-cleavage was determined as 1.73.

A5G U39C A94G A95G: the self-cleavage was 1.45.

Regarding A5U A13U A68G A69G A90G U108A, the self-cleavage worked out at 0.08.

On to G7U A11G U19C A63G U102C A111G, for which the self-cleavage is 0.02.

G8A A23G A30U A90G A116G: the self-cleavage is 0.15.

A5G U26G A89G A96G U103C A116G: the self-cleavage is 0.44.

As to A5U A54G A67G G74C U130C, the self-cleavage came out at 0.28.

For the variant C6U A89G A111G, the self-cleavage stood at 0.03.

In the case of A5G C46A A54G U103A A126U, the self-cleavage was 0.52.

Turning to U9A A30G C105G, the self-cleavage was 0.1.

Consider U9A A82G U132C, for which the self-cleavage was found to be 0.51.

Turning to U9A U12C A24C A92G A111G U120C, the self-cleavage is 0.

G7A U26C U43A: the self-cleavage was 1.9.

For A5U C10A A24G, the self-cleavage amounted to 1.83.

Turning to G7A A118G U122C, the self-cleavage was found to be 0.6.

For A5G U39C U43A U87G, the self-cleavage was 0.52.

Turning to A5G U37C A51G A52U, the self-cleavage is 0.51.

As to G8A A22U A60G, the self-cleavage is 0.82.

Regarding A5G G14A A30G A59G A116G A135U G136U, the self-cleavage stood at 0.64.

For U9A A30G A54U A92G, the self-cleavage was determined as 1.27.

Consider C6U A82U U87C A117G, for which the self-cleavage was determined as 0.05.

A5G G7A A52G U97C: the self-cleavage was determined as 1.17.

With A5U U49A A89G U124C, the self-cleavage was found to be 0.64.

For the variant A5G U38G A89U, the self-cleavage amounted to 1.49.

For the variant A5G U43C A110G U124G, the self-cleavage is 0.09.

Turning to A5U U37C A117G U120C, the self-cleavage was found to be 1.4.

Take G7U A52G A60G U70C U97C A126G: the self-cleavage was determined as 0.2.

For the variant G8C U19C U49C A114G U120C, the self-cleavage was determined as 0.14.

In the case of U9A A62U U108A, the self-cleavage was found to be 0.02.

Regarding A5U A13G A114G, the self-cleavage was 0.24.

Regarding U9A U39C A140G, the self-cleavage was determined as 0.83.

With C6U A86U U108C U131G, the self-cleavage came to 0.01.

Consider G7A A89U U124G, for which the self-cleavage was 0.92.

Turning to A5G U100C A111C U120C, the self-cleavage was 0.02.

For G7U U12A A47C C109U U132A, the self-cleavage was 0.37.

In the case of A5G U38G A55G A98G, the self-cleavage worked out at 0.37.

As to U9A A68G U120C U127A A134G, the self-cleavage was 1.08.

On to A5G U43C C46U U49G A64G A116G, for which the self-cleavage was 0.53.

On to A5G U43C U132C, for which the self-cleavage worked out at 1.62.

Regarding C6U A27G A51G A94G U100C, the self-cleavage was determined as 0.89.

Turning to G7U A13G A116G, the self-cleavage was determined as 1.43.

Turning to A5G C32U A33G, the self-cleavage came out at 1.39.

With G7A C35A A114G, the self-cleavage was 0.36.

As for A5G G75A A86G A91G A117C, the self-cleavage turned out to be 0.07.

For the variant U9A A67G A110G U122A, the self-cleavage is 0.07.

With A5U A11G A54U U102A, the self-cleavage amounted to 0.7.

Consider A5G U39A A118G, for which the self-cleavage is 1.03.

Consider G7A A23G U49C C61U U130C, for which the self-cleavage was determined as 0.83.

For the variant G7A A13G C45A, the self-cleavage stood at 1.49.

As for G7A A13U U122A U127C, the self-cleavage was 0.68.

A5G U100A U127C: the self-cleavage turned out to be 0.23.

Consider A5U A47G A91G A126G, for which the self-cleavage stood at 0.24.

Consider U9A U19C U131C U132C, for which the self-cleavage was determined as 1.39.

Consider U9A A60G A89U, for which the self-cleavage worked out at 1.93.

With G7A U39C A90G, the self-cleavage was 0.42.

With A5G U39A U108A, the self-cleavage was determined as 0.1.

On to A5G U37C A82C A116G, for which the self-cleavage is 0.04.

With A5G U12C A64G, the self-cleavage worked out at 1.02.

For G7A C16U A64G U127C, the self-cleavage is 0.88.

Turning to A5U U70A A116G U122C, the self-cleavage amounted to 0.21.

As to A5G U39A A62G A116G, the self-cleavage came out at 0.74.

C6G A11G U26C U57C A69C A91U: the self-cleavage was 0.12.

Take G7A U87C C105U: the self-cleavage came to 0.1.

Consider G7U A52U A96G, for which the self-cleavage was determined as 1.31.

Regarding G7U U12C A47G A60G, the self-cleavage worked out at 0.41.

In the case of G7U A96G U124C, the self-cleavage turned out to be 1.54.

Regarding C6U A23G A52G G65U G73A A96G, the self-cleavage worked out at 0.32.

For C6A A55G U70C A89G U108C, the self-cleavage amounted to 0.03.

The values are drawn from the RNAGym collection of RNA variant scans (doi:10.7554/elife.90254).
